Results reported in PubChem BioAssay AID588591 (National Center for Advancing Translational Sciences (NCATS), 2011).
Screen size: about 390,000 compounds; about 4,700 (1.2%) were called active. Inconclusive results, whose numbers are uncertain, are shown with a selection of clear calls. The call rests on the fitted dose curve; in most records, active means well fitted inhibition curve with a large enough effect; inconclusive means small, poorly fitted or top-dose-only effect, or another doubt; inactive means no such curve, though single readings can be large or run the other way. A potency beside an inconclusive call is a rough fit, not a confirmed value. *1 amine or outer side, *2 acyl side, *3 side chain or, on linkers, in order; H or OH if unused. Where a SMILES comes first, the peptide text is derived from it. Bridges are numbered along the chain shown (N, C = ends). [ ]: non-standard residue; d: D form. ξ: configuration not given here. hSer(Ph(2-I,4-NO2,6-CO)) = O=C([C@H](CCOc1c(I)cc([N+](=O)[O-])cc1C(=O)[*:3])N[*:1])[*:2]; ξD = NC(CC(=O)O)C(=O)O

The compounds below were run against DNA polymerase eta (Homo sapiens) (UniProt Q9Y253) (assay: qHTS for Inhibitors of Polymerase Eta). Details: recombinant Pol eta, fluorescent DNA replication assay; series mostly up to 114 µM; activity change, negative = inhibition: at the top concentration.
How it was run: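 Pol eta at 10 nM preincubated with compounds 15 min at room temperature; reaction started with fluorescent substrate (50 nM final) and read kinetically at 0 and 10 min.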
On the % scale 0 is the no-effect control and ±100 the full control effect; potency means the concentration at half of the fitted maximal effect; tags describe the fitted curve by direction and shape.

Chain of UniProt Q9Y253 (Q9Y253 whole entry, looked up): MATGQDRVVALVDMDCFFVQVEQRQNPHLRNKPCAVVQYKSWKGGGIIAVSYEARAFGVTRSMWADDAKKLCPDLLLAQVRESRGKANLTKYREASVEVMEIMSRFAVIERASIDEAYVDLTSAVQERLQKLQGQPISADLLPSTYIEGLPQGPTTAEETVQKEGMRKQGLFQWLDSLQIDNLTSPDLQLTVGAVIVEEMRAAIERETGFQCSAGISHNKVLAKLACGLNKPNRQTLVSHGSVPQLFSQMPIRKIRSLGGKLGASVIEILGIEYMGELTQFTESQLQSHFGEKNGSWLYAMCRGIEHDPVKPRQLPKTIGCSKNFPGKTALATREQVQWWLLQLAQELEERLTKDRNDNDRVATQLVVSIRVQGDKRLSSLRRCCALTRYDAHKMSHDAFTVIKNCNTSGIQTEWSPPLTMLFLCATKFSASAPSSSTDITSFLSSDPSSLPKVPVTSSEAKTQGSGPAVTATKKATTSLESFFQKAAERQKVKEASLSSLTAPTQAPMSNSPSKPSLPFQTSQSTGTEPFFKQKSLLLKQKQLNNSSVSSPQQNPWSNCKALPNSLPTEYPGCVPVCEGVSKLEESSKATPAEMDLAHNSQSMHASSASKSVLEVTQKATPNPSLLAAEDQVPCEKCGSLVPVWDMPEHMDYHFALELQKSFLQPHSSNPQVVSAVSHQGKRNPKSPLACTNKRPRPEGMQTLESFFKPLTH

Compound	Potency	activity change, negative = inhibition
Cc1ccc(NC(=O)CN2C(=O)S/C(=C\c3cc(C)n(-c4cccc(C(=O)O)c4)c3C)C2=O)cc1	active: 56.2 µM	–
CCOc1ccccc1NC(=O)CN1CCC(NC(=O)c2ccccc2C)CC1	inconclusive: 89.1 µM [inhibitor, partial curve, poor fit]	–
O=C(N/N=C/c1cccnc1)c1ccc(NC(=O)c2cccc(Cl)c2)cc1	inconclusive: 56.2 µM [inhibitor, partial curve, poor fit]	–
CCOC(=O)c1ccccc1NC(=O)c1sc2nc3n(c(=O)c2c1C)CCCCC3	–	inactive: -3.28%
COC(=O)c1c(NC(C)=O)c2c3c(sc2n1Cc1cc(C)ccc1C)CCCC3	inconclusive: 100 µM [inhibitor, partial curve, poor fit]	–
N#Cc1c(SCc2ccccc2)sc(C(=O)c2ccccc2)c1N	inconclusive: 6.31 µM [inhibitor, full curve, poor fit]	–
O=C1NC(=S)SC1=Cc1cc(Br)ccc1O	active: 50.1 µM	–
COc1ccccc1/C=C/C(=O)c1c2c(c(C)[nH]c1=O)CCCC2	–	inactive: -9.39%
Cc1ccc(-n2c(/C=C/c3c(C)n(C)c4ccccc34)nc3ccccc3c2=O)cc1	inconclusive: 100 µM [inhibitor, partial curve, poor fit]	–
O=C(O)c1ccc(NC(=S)NC(=O)c2ccc(-c3ccc(Br)cc3)o2)cc1	inconclusive: 11.2 µM [inhibitor, partial curve, poor fit]	–
COc1ccccc1NC(=O)C1=C(C)Nc2nc(-c3cccs3)nn2C1c1cccc(O)c1 (stereo unspecified)	inconclusive: 6.31 µM [inhibitor, partial curve, poor fit]	–
O=C(NC(=S)Nc1ccc(NC(=O)c2cccs2)cc1)c1cc2ccccc2o1	inconclusive: 10 µM [inhibitor, partial curve, poor fit]	–
O=C(C[C@@H]1C/C=C\C[C@H](Cc2ccc(F)cc2)C(=O)OCCNC1=O)NCCO	–	inactive: -21.9%
COc1ccc(-n2c(C)c([N+](=O)[O-])c3ccc(O)c(CN4CCCCC4)c32)cc1	–	inactive: -8.58%
CSc1nnc(-c2ccco2)c(-c2ccco2)n1	active: 11.2 µM	–
CCN(CC(=O)Nc1ccc(NC(C)=O)cc1)C(=O)C1(c2ccccc2)CC1	–	inactive: -13.4%
CC1CCCN(C(=O)c2ccc3c(=O)n4nc(Nc5ccccc5)sc4nc3c2)C1 (stereo unspecified)	–	inactive: -3.82%
Cc1occc1C(=O)NCc1cccc(CNC(=O)c2ccoc2C)c1	active: 3.55 µM	–
CCOc1ccccc1NC(=O)CSc1nnnn1Cc1ccccc1	–	inactive: -18.2%
CCc1ccc(C2C(C(=O)Nc3ccccc3OC)=C(C)Nc3c(C(=O)Nc4ccc(C)cc4)cnn32)cc1 (stereo unspecified)	–	inactive: -10.7%
COc1cc(/C=C(\C#N)c2nc3ccc(C)cc3[nH]2)ccc1OCc1ccc(C)cc1	inconclusive: 56.2 µM [inhibitor, partial curve, poor fit]	–
Cn1c2ccccc2c2cc(/C=N/NC(=O)c3ccc(O)cc3O)ccc21	inconclusive: 14.1 µM [inhibitor, full curve, poor fit]	–

Compound	Potency	activity change, negative = inhibition
Cc1ccc(OCCSc2nc(-c3ccccc3C)nc3cc(=O)[nH]n23)cc1Cl	active: 89.1 µM	–
Cc1ccccc1NC(=O)Cc1nc(COC(=O)c2ccc(S(C)(=O)=O)c([N+](=O)[O-])c2)cs1	active: 22.4 µM	–
Cc1ccc(C)c(NC(=O)Cc2ccc(S(=O)(=O)N3CCCCC3)s2)c1	inconclusive: 31.6 µM [inhibitor, partial curve, poor fit]	–
Cc1ccccc1-n1c(=S)[nH]c2nc3c(cc2c1=O)COC(C)(C)C3	inconclusive: 79.4 µM [inhibitor, partial curve, poor fit]	–
COc1cc(/C=C2\SC(=S)N(NC(=O)c3cccc(O)c3)C2=O)ccc1O	inconclusive: 44.7 µM [inhibitor, partial curve]	–
COc1ccccc1CNC(=O)C1CCN(S(=O)(=O)c2ccc3nc4c(c(C(=O)O)c3c2)CCCC4)CC1	inconclusive: 14.1 µM [inhibitor, partial curve, poor fit]	–
O=C(Nc1nc(-c2ccccn2)cs1)c1ccco1	inconclusive: 15.8 µM [inhibitor, full curve, poor fit]	–
Cc1cc(NC(=O)/C=C/c2ccccc2Cl)no1	inconclusive: 31.6 µM [inhibitor, single point]	–
CCC(=O)N1CCc2cc(Br)cc(S(=O)(=O)CCC(=O)Nc3cccc(Cl)c3)c21	inconclusive: 100 µM [inhibitor, single point]	–
CCCn1c(N)c(C(=O)CSc2nc3ccccc3n2CCC#N)c(=O)n(C)c1=O	inconclusive: 3.16 µM [inhibitor, partial curve, poor fit]	–
COc1ccc(-c2ccc3c(c2)S(=O)(=O)c2cccc(C(=O)NCc4ccccc4Cl)c2C3=O)cc1OC	inconclusive: 3.98 µM [inhibitor, full curve, poor fit]	–
COc1ccccc1/C=C1\S/C(=N/NC(=O)c2cccc(Br)c2)NC1=O	active: 39.8 µM	–
Cc1cc(O)cc(C)c1Cl	inconclusive: 89.1 µM [inhibitor, single point]	–
CC1(c2ccc(NC(=O)c3ccccc3F)cc2)CC1(Cl)Cl (stereo unspecified)	inconclusive: 89.1 µM [inhibitor, partial curve, poor fit]	–
Cc1nc2c(sc(=S)n2Cc2ccco2)c(=O)n1CC(=O)Nc1ccc(F)cc1	inconclusive: 28.2 µM [inhibitor, partial curve, poor fit]	–
O=C(N/N=C/c1ccc([N+](=O)[O-])o1)C(=O)Nc1ccc(C(=O)O)cc1	inconclusive: 63.1 µM [inhibitor, partial curve, poor fit]	–
O=C(O)C1Cc2ccccc2CN1S(=O)(=O)c1ccc2ccccc2c1 (stereo unspecified)	active: 5.62 µM	–
CNC(=O)COC(=O)c1ccccc1NC(=O)c1ccco1	inconclusive: 89.1 µM [inhibitor, partial curve, poor fit]	–
O=C(CCc1nc(-c2ccccc2)no1)NC1CCCCCC1	–	inactive: -24%
O=C(Nc1cc(Br)c(O)c(Br)c1)c1cccc(NC(=O)c2ccco2)c1	inconclusive: 50.1 µM [inhibitor, partial curve, poor fit]	–
CCOC(=O)c1cnn(-c2nc(-c3ccc(F)cc3)cs2)c1C(F)(F)F	inconclusive: 44.7 µM [inhibitor, partial curve, poor fit]	–
CCS(=O)(=O)c1ccc(O)c(NC(=O)c2cc(-c3ccccn3)nc3ccccc23)c1	inconclusive: 50.1 µM [inhibitor, partial curve]	–

Compound	Potency	activity change, negative = inhibition
O=C(CN1CCN(c2ccc(O)cc2)CC1)Nc1cc(S(=O)(=O)N2CCOCC2)ccc1Cl	inconclusive: 15.8 µM [inhibitor, partial curve, poor fit]	–
CCc1nnc(NC(=O)c2sc3nc4cc(C)ccc4cc3c2N)s1	active: 89.1 µM	–
C[C@@H]1NC(=O)[C@H](CC(N)=O)NC(=O)c2cc([N+](=O)[O-])cc(I)c2OCC[C@@H](C(=O)NC(CC(=O)O)C(N)=O)NC1=O (stereo partly specified) (NA[hSer(Ph(2-I,4-NO2,6-CO))][ξD]-NH2; lactam N-3)	active: 20 µM	–
CCc1nnc(NC(=O)CSc2sc3c(O)cc(=O)[nH]c3c2C#N)s1	active: 3.55 µM	–
Cc1nn(CC(=O)Nc2ccncc2)c(C)c1[N+](=O)[O-]	inconclusive: 28.2 µM [inhibitor, partial curve, poor fit]	–
O=C(O)Cn1cc(/C=N/NC(=O)c2cc3cc(Br)ccc3o2)c2ccccc21	–	inactive: -22.2%
COc1cc(/C=C2/SC(=NCc3ccccc3)N(Cc3ccccc3)C2=O)ccc1O	–	inactive: -14.5%
COc1ccc(CCCc2nnc(SCC(=O)Nc3cccc(F)c3C)o2)cc1	inconclusive: 79.4 µM [inhibitor, partial curve, poor fit]	–
N#Cc1ccccc1N1CCN(C(=O)c2ccc(NC(=O)c3ccc(Br)o3)cc2)CC1	active: 22.4 µM	–
O=C(NNC1CC(c2ccccc2)=NN1C(=O)c1ccccc1)c1ccccc1 (stereo unspecified)	inconclusive: 22.4 µM [inhibitor, partial curve, poor fit]	–
COc1ccc(/C=C/C(=O)OCC(=O)Nc2ncc(Cl)cc2Cl)cc1	inconclusive: 31.6 µM [inhibitor, single point]	–
COc1cc(/C=C2\C(C)=C(C#N)c3nc(N)c(C#N)c(C)c32)ccc1OCC(=O)O	active: 22.4 µM	–
O=C(Nc1nc2c(F)cc(F)cc2s1)c1ccc(S(=O)(=O)N2CCc3ccccc32)cc1	–	inactive: -10.7%
O=C(NC1=C(NC2CCS(=O)(=O)C2)C(=O)c2ccccc2C1=O)c1ccccc1 (stereo unspecified)	active: 79.4 µM	–
N=C1/C(=C\c2ccc(-c3ccc(C(=O)O)cc3)o2)C(=O)N=C2SC=C(c3ccccc3)N12	active: 3.55 µM	–
O=c1c2ccccc2ncn1Cc1ccc(Cl)c(Cl)c1	–	inactive: -18.2%
Cc1cc(C(F)F)n2nc(C(=O)Nc3sc4c(c3C#N)CCC4)nc2n1	active: 22.4 µM	–
C=CCOC(=O)C1=C[C@@H](c2ccc3c(c2)OCO3)C[C@@H](OCCCCO)O1	inconclusive: 39.8 µM [inhibitor, partial curve, poor fit]	–
CCC(Cc1ccccc1)NC(=O)Cn1nc(C)n2c(cc3occc32)c1=O (stereo unspecified)	–	inactive: -0.438%
CC(=O)c1ccc(NC(=O)CSC2=Nc3ccccc3N=C(c3ccc(F)cc3)C2)cc1	–	inactive: -14.2%
COc1cc(OC)cc(-c2nc3nc(C)c(CCC(=O)Nc4cc(C)cc(C)c4)c(C)n3n2)c1	–	inactive: -5.95%
COc1cc(/C=N\NC(=O)c2ccc(=O)[nH]n2)cc(OC)c1OC	inconclusive: 10 µM [inhibitor, full curve, poor fit]	–
